Data taken from US20220411514A1, “ANTI-GAL3 ANTIBODIES AND METHODS OF USE FOR INSULIN RESISTANCE” (TrueBinding, Inc., priority 2021, published 2022).

System: Human Gal3 peptides
Assay: Gal3 peptide binding ELISA (Example 8)
Conditions: antibody 5 μg/mL
How it was run: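 Reformatted hIgG4 (S228P) anti-Gal3 antibodies were tested at 5 μg/mL for 1 h at room temperature against immobilised human Gal3 peptides (≥100 μg/mL coating) or protein (1 μg/mL coating) on BSA-blocked plates. Bound antibody read by peroxidase goat anti-human IgG with TMB at 450 nm.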

B1: 13G4.2F8: anti-Gal3 antibody (antibody)
heavy: QVQLQQPGAELVKPGASVKLSCKASGYTFTSYWMHWVKQRPGQGLEWIGMIHPNSGSTDYNEKFKNKATLNVDKSSSTAYIQLSSLTSEDSAVYYCTRWGIYYYARDYWGQGTTLTVSSASTKGPSVFPLAPCSRSTSESTAALGCLVKDYFPEPVTVSWNSGALTSGVHTFPAVLQSSGLYSLSSVVTVPSSSLGTKTYTCNVDHKPSNTKVDKRV[in this place human IgG4 Fc with S228P (EU numbers)]
light: DIVMTQSQKFMSTSVGERVSITCKASQNVGTNVAWYQQKAGQSLELLIYGASNRHTGVPDRFTGSGSGTDFTLTITNVQSEDMTNYFCEQYSNFPLTFGAGTKLELKRTVAAPSVFIFPPSDEQLKSGTASVVCLLNNFYPREAKVQWKVDNALQSGNSQESVTEQDSKDSTYSLSSTLTLSKADYEKHKVYACEVTHQGLSSPVTKSFNRGEC
modifications: 13G4.2F8 heavy chain peptide sequence; 13G4.2F8 light chain peptide sequence
notes: anti-Gal3 antibody
- binding to any of the tested Gal3 peptides: not found to bind
